Source: publication PMC9911399, “Two distinct binding modes provide the RNA-binding protein RbFox with extraordinary sequence specificity”
Numbering of substitutions follows the chain as printed; changes in the protein carry UniProt numbers. The list shows a part of the results.

T1: RBFOX1 RRM (Homo sapiens, UniProt Q9NWB1 109-208)
T1 sequence: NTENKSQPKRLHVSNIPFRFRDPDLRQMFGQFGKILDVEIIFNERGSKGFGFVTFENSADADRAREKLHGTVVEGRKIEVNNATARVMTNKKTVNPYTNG

B1: GGCACCG (DNA:RNA)
RNA: GGGAGACCGGAAUUCAGAUUGUCCGGCACCGUUAAAUCCCGUCGUAGCCACCA
DNA 1: CAATCTGAATTCCGGTCTCCC
DNA 2: TGGTGGCTACGACGGGATT
B2: AAUCAAA (DNA:RNA)
RNA: GGGAGACCGGAAUUCAGAUUGUCCAAUCAAAUUAAAUCCCGUCGUAGCCACCA
DNA 1: CAATCTGAATTCCGGTCTCCC
DNA 2: TGGTGGCTACGACGGGATT
B3: GGUUGUC (DNA:RNA)
RNA: B1 RNA with C27U, A28U, C29G, C30U, G31C
DNA 1: CAATCTGAATTCCGGTCTCCC
DNA 2: TGGTGGCTACGACGGGATT
B4: CCUCAUC (DNA:RNA)
RNA: B2 RNA with A25C, A26C, A30U, A31C
DNA 1: CAATCTGAATTCCGGTCTCCC
DNA 2: TGGTGGCTACGACGGGATT
B5: CUGAGCA (DNA:RNA)
RNA: B1 RNA with G25C, G26U, C27G, C29G, G31A
DNA 1: CAATCTGAATTCCGGTCTCCC
DNA 2: TGGTGGCTACGACGGGATT
B6: AGAAAGG (DNA:RNA)
RNA: B1 RNA with G25A, C27A, C29A, C30G
DNA 1: CAATCTGAATTCCGGTCTCCC
DNA 2: TGGTGGCTACGACGGGATT
B7: ACCUAAC (DNA:RNA)
RNA: B2 RNA with A26C, U27C, C28U, A31C
DNA 1: CAATCTGAATTCCGGTCTCCC
DNA 2: TGGTGGCTACGACGGGATT
B8: GUAGCGA (DNA:RNA)
RNA: B1 RNA with G26U, C27A, A28G, C30G, G31A
DNA 1: CAATCTGAATTCCGGTCTCCC
DNA 2: TGGTGGCTACGACGGGATT
B9: GAAACAG (DNA:RNA)
RNA: B1 RNA with G26A, C27A, C30A
DNA 1: CAATCTGAATTCCGGTCTCCC
DNA 2: TGGTGGCTACGACGGGATT
B10: AUCUAGG (DNA:RNA)
RNA: B2 RNA with A26U, U27C, C28U, A30G, A31G
DNA 1: CAATCTGAATTCCGGTCTCCC
DNA 2: TGGTGGCTACGACGGGATT
B11: ACUAACU (DNA:RNA)
RNA: B2 RNA with A26C, C28A, A30C, A31U
DNA 1: CAATCTGAATTCCGGTCTCCC
DNA 2: TGGTGGCTACGACGGGATT
B12: UGUACGC (DNA:RNA)
RNA: B1 RNA with G25U, C27U, C30G, G31C
DNA 1: CAATCTGAATTCCGGTCTCCC
DNA 2: TGGTGGCTACGACGGGATT
B13: UAUUCAA (DNA:RNA)
RNA: B2 RNA with A25U, C28U, A29C
DNA 1: CAATCTGAATTCCGGTCTCCC
DNA 2: TGGTGGCTACGACGGGATT
B14: UCUCUGC (DNA:RNA)
RNA: B2 RNA with A25U, A26C, A29U, A30G, A31C
DNA 1: CAATCTGAATTCCGGTCTCCC
DNA 2: TGGTGGCTACGACGGGATT
B15: UUGAAUU (DNA:RNA)
RNA: B2 RNA with A25U, A26U, U27G, C28A, A30U, A31U
DNA 1: CAATCTGAATTCCGGTCTCCC
DNA 2: TGGTGGCTACGACGGGATT
B16: UUCCUAA (DNA:RNA)
RNA: B2 RNA with A25U, A26U, U27C, A29U
DNA 1: CAATCTGAATTCCGGTCTCCC
DNA 2: TGGTGGCTACGACGGGATT
B17: AGGUCCC (DNA:RNA)
RNA: B1 RNA with G25A, C27G, A28U, G31C
DNA 1: CAATCTGAATTCCGGTCTCCC
DNA 2: TGGTGGCTACGACGGGATT
B18: CUGAUCA (DNA:RNA)
RNA: B1 RNA with G25C, G26U, C27G, C29U, G31A
DNA 1: CAATCTGAATTCCGGTCTCCC
DNA 2: TGGTGGCTACGACGGGATT
B19: CAUCUAU (DNA:RNA)
RNA: B2 RNA with A25C, A29U, A31U
DNA 1: CAATCTGAATTCCGGTCTCCC
DNA 2: TGGTGGCTACGACGGGATT
B20: CUAGGUA (DNA:RNA)
RNA: B2 RNA with A25C, A26U, U27A, C28G, A29G, A30U
DNA 1: CAATCTGAATTCCGGTCTCCC
DNA 2: TGGTGGCTACGACGGGATT
B21: UCGGAAG (DNA:RNA)
RNA: B2 RNA with A25U, A26C, U27G, C28G, A31G
DNA 1: CAATCTGAATTCCGGTCTCCC
DNA 2: TGGTGGCTACGACGGGATT
B22: GUGAACG (DNA:RNA)
RNA: B1 RNA with G26U, C27G, C29A
DNA 1: CAATCTGAATTCCGGTCTCCC
DNA 2: TGGTGGCTACGACGGGATT
B23: UAAUUCG (DNA:RNA)
RNA: B1 RNA with G25U, G26A, C27A, A28U, C29U
DNA 1: CAATCTGAATTCCGGTCTCCC
DNA 2: TGGTGGCTACGACGGGATT
B24: CAUGCAA (DNA:RNA)
RNA: B2 RNA with A25C, C28G, A29C
DNA 1: CAATCTGAATTCCGGTCTCCC
DNA 2: TGGTGGCTACGACGGGATT
B25: GUAGGCA (DNA:RNA)
RNA: B1 RNA with G26U, C27A, A28G, C29G, G31A
DNA 1: CAATCTGAATTCCGGTCTCCC
DNA 2: TGGTGGCTACGACGGGATT
B26: AUUCAAG (DNA:RNA)
RNA: B2 RNA with A26U, A31G
DNA 1: CAATCTGAATTCCGGTCTCCC
DNA 2: TGGTGGCTACGACGGGATT
B27: AAGUAGC (DNA:RNA)
RNA: B2 RNA with U27G, C28U, A30G, A31C
DNA 1: CAATCTGAATTCCGGTCTCCC
DNA 2: TGGTGGCTACGACGGGATT
B28: AUUUCGU (DNA:RNA)
RNA: B2 RNA with A26U, C28U, A29C, A30G, A31U
DNA 1: CAATCTGAATTCCGGTCTCCC
DNA 2: TGGTGGCTACGACGGGATT
B29: CGGCAAC (DNA:RNA)
RNA: B2 RNA with A25C, A26G, U27G, A31C
DNA 1: CAATCTGAATTCCGGTCTCCC
DNA 2: TGGTGGCTACGACGGGATT
B30: ACGUUAC (DNA:RNA)
RNA: B2 RNA with A26C, U27G, C28U, A29U, A31C
DNA 1: CAATCTGAATTCCGGTCTCCC
DNA 2: TGGTGGCTACGACGGGATT
B31: ACCUCGC (DNA:RNA)
RNA: B1 RNA with G25A, G26C, A28U, C30G, G31C
DNA 1: CAATCTGAATTCCGGTCTCCC
DNA 2: TGGTGGCTACGACGGGATT

What follows are binders tested against T1, RBFOX1 RRM (assay: EMSA; HiTS-Eq, 1 nM pool, 10 min; buffer printed only for the single-RNA assays: 10 mM Tris pH 7.5, 150 mM NaCl, 3.4 mM EDTA, 0.001% NP-40, 30 C). Details: tags: His6 N-terminal (pET28a); label: 5' 32P.
Summary of the method: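 Purified RbFox RRM (wild type or mutant) was equilibrated for 10 min in 50 µL with 1 nM of a 5′-radiolabelled pool of RNA with 7 randomized nucleotides, its flanks annealed to DNA oligonucleotides, across increasing protein concentrations. Free RNA was separated by 8% native PAGE, excised, reverse-transcribed, PCR-barcoded and sequenced on an Illumina HiSeq 2500. Relative association constants came from read-count changes of each variant against the control reaction, normalised to the cognate motif.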

In order of falling binding signal:
1. B3  0.0246 KA relative to UGCAUGU
2. B14  0.0167 KA relative to UGCAUGU
3. B22  0.0163 KA relative to UGCAUGU
4. B5  0.0155 KA relative to UGCAUGU
5. B25  0.0151 KA relative to UGCAUGU
6. B1  0.0143 KA relative to UGCAUGU
7. B29  0.0128 KA relative to UGCAUGU
8. B21  0.0125 KA relative to UGCAUGU
9. B23  0.0125 KA relative to UGCAUGU
10. B28  0.0125 KA relative to UGCAUGU
11. B6  0.0121 KA relative to UGCAUGU
12. B8  0.0119 KA relative to UGCAUGU
13. B15  0.0117 KA relative to UGCAUGU
14. B27  0.0116 KA relative to UGCAUGU
15. B12  0.0109 KA relative to UGCAUGU
16. B13  0.00989 KA relative to UGCAUGU
17. B20  0.0093 KA relative to UGCAUGU
18. B10  0.00742 KA relative to UGCAUGU
19. B18  0.00698 KA relative to UGCAUGU
20. B9  0.00679 KA relative to UGCAUGU
21. B4  0.00564 KA relative to UGCAUGU
22. B30  0.00513 KA relative to UGCAUGU
23. B24  0.00451 KA relative to UGCAUGU
24. B31  0.0038 KA relative to UGCAUGU
25. B17  0.00339 KA relative to UGCAUGU
26. B16  0.00248 KA relative to UGCAUGU
27. B11  0.00125 KA relative to UGCAUGU
28. B7  0.000932 KA relative to UGCAUGU
29. B19  0.000674 KA relative to UGCAUGU
30. B2  0.000661 KA relative to UGCAUGU
31. B26  0.00061 KA relative to UGCAUGU
